This is one part of the list.
test system: PfHDP1 homeodomain (GST-tagged); assay: gcPBM binding intensity (ln(normalized median fluorescence intensity)); higher = stronger DNA binding
Summary of the method: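 The binding buffer was 1× PBS containing 1% milk, 0.2 mg/ml BSA, 0.5% salmon testes DNA and 0.03% Triton X-100. In it, GST-tagged P. falciparum DNA-binding domains expressed in E. coli were applied for 1 h to an Agilent 4 × 180k array of primer-extended double-stranded 36-bp intergenic genomic probes plus negative controls. Binding intensity, read with Alexa488 anti-GST antibody and a 488 nm scan, is the highest Masliner-normalised natural-log median intensity across replicate spots of either probe orientation.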

| Sequence | gcPBM binding intensity (ln) |
| --- | --- |
| TTTAATTCTTATATTTGTACAGATTCATAATTAAAT [XGTACX_site7465] | 6.38 |
| TATCTTTTATAAGTGACACACATAAATATTTAAATT [CACACA_site833] | 6.56 |
| ATATTAGGGTCATGAACACACAAAAAAAAAAAAAAA [CACACA_site937] | 6.29 |
| GCTATCATATCATGTTGTACACAACCTCAAAATGAA [XGTACX_site8757] | 6.67 |
| TCATATTTACAAAAAGGTATTAATAAATAAAATATT [CACACA_negctrl_site259] | 6.56 |
| AATAAGTGTTGATTCTTAAAATGACCATATAATAAT [TGCATGCA_negctrl_site221] | 6.48 |
| TGTATAACCTGTGTTACACACATTAGAATTTATATA [CACACA_site6393] | 6.15 |
| TTCTCCATCAGATACTGTACATAATATATATAATAT [XGTACX_site8827] | 6.86 |
| TACATAAACTTTATAACACACACTTATATATATATA [CACACA_site1106] | 8.93 |
| TATATAAAGATATATACACACAAAAAAAAAAAAAAA [CACACA_site6778] | 6.32 |
| GCATCATTTATTTGCACACCTATTATATACTTTTTA [CACACA_site2098] | 10.7 |
| TATAAAAATATATATATATATATATATATATATATA [TGCATGCA_negctrl_site541] | 9.32 |
| TTGATATAAAAAGAAAGTACTTTATAGATGTTTATT [XGTACX_site8144] | 6.39 |
| AATAATAACAAATGAACACACATATATATGAGCAAA [CACACA_site2121] | 8.62 |
| TTAGTATATTTTTCCTGTACGTACTCAGATACAAAT [XGTACX_site7397] | 6.74 |
| TTAAATAATTTTTAATGTACATTAAATTTATTATTA [XGTACX_site261] | 6.07 |
| TACACATTATGTATCATACACACAAATAAATATATA [CACACA_site608] | 6.66 |
| TTTTACTCTTAAAATAATAAAAAATATTCACATTTA [CACACA_negctrl_site1508] | 5.71 |
| AAAAAGAATATAAGTAGTACAGTGCATATAATAATT [XGTACX_site617] | 9.75 |

| Sequence | gcPBM binding intensity (ln) |
| --- | --- |
| AAGAGAAATGGGCACACACACACATATTATATATAT [CACACA_site1531] | 7.18 |
| TATATATACATATACGCATGTAAATTCAAAAGTAAA [TGCATGCA_site956] | 6.56 |
| TATAATTTTTTTAATACACACAAATATTTATATATA [CACACA_site3042] | 6.56 |
| AATTAATGTTTTGTCACACAGTATGATTATATATAT [CACACA_site6143] | 6.63 |
| ACATATTATAGGAATACACACAAAAACTTATCGGTA [CACACA_site7587] | 6.56 |
| ATTATATATATTGGAGTGCATATATAGTATTTTATA | 8.26 |
| ATAGAAATCTATTGTGATTATTATTTTATTTTTAGT [XGTACX_negctrl_site605] | 6.07 |
| TGAAGATAAAAATATGCACACATATATATATATATA [CACACA_site8027] | 9.72 |
| CATAAAAATGAACATACACACATATATTTATTTATA [CACACA_site7222] | 6.31 |
| TTCTACGTTTTAAAAAAAAAAAAAAAAAAAAAAAAA [XGTACX_negctrl_site6] | 6.14 |
| ATACATATCTATAATACACACATAAATGTAACATTT [CACACA_site7621] | 7.04 |
| AATGTATTATGTAATAGTACGTATAATATCTTATTT [XGTACX_site3] | 6.24 |
| CAACACTTTCAAAAATGTACGTACAAATGTATTTTA [XGTACX_site6713] | 6.51 |
| AGTTTCCATATGAGGTGTACATATATAATTTATTAT [XGTACX_site2369] | 6.74 |
| ACAAAATAAAGACACACACACAAACACAAAAAAATA [CACACA_site7568] | 6.9 |
| ATTAATGATTTTTGTTGTACATTATTAATTTACATT [XGTACX_site544] | 6.47 |
| ATGCGTATACTAAGAACACACAAGTTACTTGGTGTT [CACACA_site1625] | 6.11 |
| CATACATACATACATACACACATACATATGTATTTA [CACACA_site5384] | 7.57 |
| TATTTTATATTTCATTTGTTATTTTTCTTGGTTCTA [CACACA_negctrl_site33] | 6.49 |

| Sequence | gcPBM binding intensity (ln) |
| --- | --- |
| TCAAGAATTTTAAAGAGTACATAAAACAATAATATA [XGTACX_site3923] | 6.36 |
| CAAAAATAACGAGTCAAACACACATATATATATATA [CACACA_site2038] | 9.19 |
| AAAGGGATAACACCAAAAAAAATAAAAATAAAAATA [GTGCAC_negctrl_site680] | 6.55 |
| TTGCAAATATATGGTTGTACTCAAAAAAAAAAAAAA [XGTACX_site6975] | 6.47 |
| TCTTTCTATTTATAATGTACTCAAAATTATTCTATA [XGTACX_site4867] | 6.45 |
| AAAATATAATATATTGCACACAAAAAGTGAATTATT [CACACA_site8489] | 10.6 |
| TACCATTATTTTAAGTGTACATACTAATTTATATAT [XGTACX_site6548] | 6.56 |
| TTTTACCACTAAAAATGTACAAAAAAAAAAAAAAAA [XGTACX_site4226] | 6.2 |
| CCTTGCATTTATTATACACACACAAAAAAATATATA [CACACA_site7964] | 7.58 |
| AAATTGTGTGAAATATATTAATATTATTATTATTAT [TGCATGCA_negctrl_site189] | 6.41 |
| TATGCACCCAGACACACACACACAACTAAAAAATAA [CACACA_site2567] | 8.1 |
| TTTGTAGATTTTGTAACACACACATATATATACATA [CACACA_site8757] | 6.57 |
| TTTTTTTTTTTTGAGTGTACAAGATTGTTGTTCCAA [XGTACX_site6120] | 6.17 |
| AAATATTTGTGTGGTTGTACTATAATGATAAAAATA [XGTACX_site7703] | 6.85 |
| TTTTTTCAAATTATTCGATATGTAAAAAAATAAAAT [GTGCAC_negctrl_site241] | 6.34 |
| GGTTTGAATTTTTAAGTGCATATAACATAAATGAAA | 9.41 |
| CATACATACAAACACACACACATATATATATATATA [CACACA_site43] | 9.35 |
| TTATATTATATATATATTATATATATGTATGCATAA [TGCATGCA_negctrl_site481] | 6.43 |

Source: the supplement of paper PMC11417369
